This is one part of the list. These are noisy estimates, calculated here from bound and input reads.
Target: T1, Pho4 (S. cerevisiae) (UniProt P07270)
T1 sequence: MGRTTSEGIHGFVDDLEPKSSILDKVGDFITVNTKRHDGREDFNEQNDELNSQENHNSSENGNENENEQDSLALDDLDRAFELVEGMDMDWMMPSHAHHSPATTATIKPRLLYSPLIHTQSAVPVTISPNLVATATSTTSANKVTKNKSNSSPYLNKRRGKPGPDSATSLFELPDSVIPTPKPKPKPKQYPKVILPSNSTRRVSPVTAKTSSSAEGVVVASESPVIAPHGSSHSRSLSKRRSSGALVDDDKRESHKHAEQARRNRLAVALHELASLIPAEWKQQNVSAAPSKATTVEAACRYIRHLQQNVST
Experiment: relative binding free energy (BET-seq); higher = weaker binding
Conditions: reference: library average

Row | Sequence | relative binding free energy [kcal/mol]
1 | TATAACACGTGGGGGA | -0.22
2 | GCGAACACGTGGGGGG | -0.15
3 | TTATTCACGTGATGCA | 0.26
4 | ATTAGCACGTGGTGTA | -0.1
5 | ATTTACACGTGGAATG | -0.07
6 | AGGCTCACGTGAAGTG | 0.31
7 | AGTGGCACGTGAGCTT | 0.09
8 | GGTGACACGTGGGGTT | -0.04
9 | GTGGCCACGTGGGTGT | -0.09
10 | TTTAACACGTGTAAGG | 0.12
11 | ACGTTCACGTGTAGGA | 0.35
12 | ACGGCCACGTGGGTTG | -0.2
13 | CTTTCCACGTGTGTTT | -0.01
14 | CTGTGCACGTGTTGGA | -0.02
15 | AGGTACACGTGGCGTT | 0.06
16 | TTGGACACGTGGTGGT | 0
17 | CGCGGCACGTGGTATG | -0.14
18 | TTTGCCACGTGAGGGA | 0.14
19 | TTTGGCACGTGAAGAG | 0.08
20 | ATTTGCACGTGAGAAG | 0.04
21 | AAGGTCACGTGGGTGC | -0.04

Row | Sequence | relative binding free energy [kcal/mol]
22 | TATTACACGTGCGTGG | 0.07
23 | GGGTTCACGTGATGTC | 0.43
24 | TTAATCACGTGTAATG | 0.1
25 | GTATTCACGTGGAGAT | 0.36
26 | AGATTCACGTGGATTA | 0.31
27 | GGGCTCACGTGTAGGT | 0.2
28 | TATTCCACGTGGTCGG | 0.04
29 | GTTTGCACGTGAAGTT | 0.32
30 | CTTTGCACGTGGGCTT | -0.19
31 | TTTATCACGTGCGCTG | 0.11
32 | TACAGCACGTGGGTTA | -0.18
33 | AATTCCACGTGGTAGG | -0.06
34 | TGTGTCACGTGGTGAT | 0
35 | TTCTTCACGTGGCGTA | 0.29
36 | TGGGCCACGTGGCGCT | -0.09
37 | TTAGTCACGTGGGCTG | -0.13
38 | GTACGCACGTGGCGGG | -0.2
39 | GAGTGCACGTGTAAGG | 0.06
40 | AGGAACACGTGTTTAT | -0.1
41 | GATTCCACGTGATGGG | 0.26
42 | GTCTGCACGTGGACGT | 0.07

Row | Sequence | relative binding free energy [kcal/mol]
43 | AGGTGCACGTGGGTGC | -0.21
44 | TTGTCCACGTGTTTAT | 0.01
45 | CGGTTCACGTGTGGGC | 0.25
46 | CGGGTCACGTGGTTTC | 0.12
47 | TGGGACACGTGATTCT | 0.13
48 | CGTTACACGTGAAGGT | 0.28
49 | CGTGTCACGTGGGAAA | 0.06
50 | GGGGTCACGTGAGTGT | 0.42
51 | GGGTTCACGTGGAGGA | 0.3
52 | TTTCCCACGTGTGGTG | -0.07
53 | CGGTACACGTGGGAGT | -0.04
54 | GTTGGCACGTGAGCGA | 0
55 | GAAGACACGTGATTGG | 0.22
56 | GTTTTCACGTGGGCCT | 0.42
57 | CTGTGCACGTGTAGAG | 0.08
58 | GGGAGCACGTGAGTTG | 0.18
59 | TTGATCACGTGTTAAA | 0.24
60 | TGGCACACGTGTGGGC | 0.09
61 | GGTGGCACGTGCGCTA | -0.18
62 | AGGTGCACGTGGATGA | -0.06
63 | TTAATCACGTGGGATA | -0.02
